The values that follow come from PubChem BioAssay AID1745853 (National Center for Advancing Translational Sciences (NCATS), 2022).

What all share (test): Primary Screen for Target Class Profiling of Small Molecule Inhibitors of Methyltransferases
Test [1] has as its target Glycine N-methyltransferase (Homo sapiens) (UniProt Q14749). The note with it: purified enzyme, MTase-Glo SAH luminescence; measured here: GNMT inhibition; at 40 µM; stronger effect = lower value. The method in brief:
(§1)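 Each enzyme was reacted with SAM and its substrate, with compounds tested once at 40 uM; SAH formed was read by MTase-Glo luminescence.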

Test [2] has as its target Guanidinoacetate N-methyltransferase (Homo sapiens) (UniProt Q14353). The note with it: purified enzyme, MTase-Glo SAH luminescence; measured here: GAMT inhibition; at 40 µM; stronger effect = lower value. An outline of the steps: as §1
In test [3] the target is Histamine N-methyltransferase (Homo sapiens) (UniProt P50135). Conditions: purified enzyme, MTase-Glo SAH luminescence; measured here: HNMT inhibition; at 40 µM; stronger effect = lower value. The method in brief:
as §1

Test [4] concerns the target Nicotinamide N-methyltransferase (Homo sapiens) (UniProt P40261). Conditions: purified enzyme, MTase-Glo SAH luminescence; measured here: NNMT inhibition; at 40 µM; stronger effect = lower value. An outline of the steps:
as §1

For test [5], the target named is Phenylethanolamine N-methyltransferase (Homo sapiens) (UniProt P11086). Conditions: purified enzyme, MTase-Glo SAH luminescence; measured here: PNMT inhibition; at 40 µM; stronger effect = lower value. The method in brief:
as §1

Values joined by “and” are separate entries in the source; they are usually repeats but may differ in a detail not shown here. Equal values may be shown once. The list shows a part of the results. The main result of the screen is listed elsewhere. These columns were measured beside it and carry no call.
% is set by controls: 0 for no effect and ±100 for the full control effect.

As to `CC(C)C1c2cccn2CCN1C(=O)Nc1cccc(Cl)c1` (stereo not given), the activity change, negative = inhibition was 2.39% in test [1]; 0% in test [2]; -1.91% in test [3]; -2.86% in test [4]; -1.66% in test [5].

`O=C(NCc1ccncc1)c1ccc(-c2ccsc2)nc1`: the activity change, negative = inhibition amounted to 11.4% in test [1]; 2.64% in test [2]; 10.1% in test [3]; 6.6% in test [4]; 8.84% in test [5].

Take `COCCN1C(=O)c2c(-n3cccc3)c3cc(C)ccc3n2CC1(C)C(=O)NCCC(C)C` (stereo not given): the activity change, negative = inhibition in test [1] was 2.43%; in test [2], 2.75%; in test [3], 2.05%; in test [4], -12%; in test [5], -5.11%.

With `C[C@@H]1O[C@@H](O[C@H]2[C@H](OC(=O)[C@]34CCC(C)(C)C[C@H]3C3=CCC5[C@@]6(C)C[C@H](O)[C@H](O[C@@H]7O[C@H](CO)[C@@H](O)[C@H](O)[C@H]7O)[C@@](C)(CO)C6[C@H](O)C[C@@]5(C)[C@]3(C)CC4)OC[C@H](O)[C@@H]2O)[C@H](O)[C@H](O)[C@H]1O[C@@H]1OC[C@@H](O)[C@H](O[C@@H]2OC[C@](O)(CO)[C@H]2O)[C@H]1O` (stereo not given in full), the activity change, negative = inhibition in test [1] is 4.12%; in test [2], 4.44%; in test [3], 10.8%; in test [4], -8.52%; in test [5] it was 7.94%.

With `CCOC(=O)c1cc2n(n1)CC(C)(C(=O)NCc1ccccc1OC)N(Cc1ccccc1F)C2=O` (stereo not given), the activity change, negative = inhibition in test [1] was 6.53%; in test [2], 1.52%; in test [3], 13.5%; in test [4] it was 4.61%; in test [5], 8.32%.

With `Cc1cccc(OCC(=O)NCc2nnc3c(-c4nc(C)no4)cccn23)c1`, the activity change, negative = inhibition in test [1] is -6.24%; in test [2] it was -1.92%; in test [3] it was -0.778%; in test [4] it was -4.52%; in test [5], -17.8%.

For the compound `CC(=O)O[C@@]1(C)C[C@@H](O)[C@]2(O)C=CO[C@@H](O[C@@H]3O[C@H](CO)[C@@H](O)[C@H](O)[C@H]3O)[C@@H]21`, the activity change, negative = inhibition was 4.17% in test [1]; 7.97% in test [2]; 5.87% in test [3]; -3.21% in test [4]; 7.25% in test [5].

Regarding `CN(C)C(=O)C1=NOC2CN(C(=O)C3CC3)CC12` (stereo not given), the activity change, negative = inhibition in test [1] is -1.55%; in test [2] it was -1.03%; in test [3] it was -0.373%; in test [4] it was -8.06%; in test [5] it was -2.34%.

As to `COCCCN1C(=O)c2ccc(-c3ccco3)n2CC1(C)C(=O)NC1CCCCC1` (stereo not given), the activity change, negative = inhibition in test [1] was found to be 2.96%; in test [2], 3.58%; in test [3], 6.16%; in test [4], 7.87%; in test [5], 0.98%.

Turning to `COc1ccccc1Oc1ncccc1CNC(=O)Nc1cccc(C#N)c1`, the activity change, negative = inhibition in test [1] is -2.51%; in test [2], -1.61%; in test [3], 1.27%; in test [4], -8.29%; in test [5] it was -1.31%.

Take `CCOc1ccccc1CN1C(=O)c2cc(C(C)(C)C)nn2CC1(C)C(=O)NCc1ccccc1` (stereo not given): the activity change, negative = inhibition in test [1] is 6.9%; in test [2], 0%; in test [3], 6.18%; in test [4], -10.7%; in test [5], -0.97%.

As to `COc1ccc(CNCC2(CO)C[C@@H](O)[C@@H](O)C2)cc1` (stereo not given in full), the activity change, negative = inhibition in test [1] is -3.73%; in test [2] it was -6.72%; in test [3], -1.88%; in test [4], -10.3%; in test [5], -3.99%.

For the compound `Cc1ccc(CN2C(=O)c3cc4ccccc4n3CC2(C)C(=O)NCCC(C)C)cc1` (stereo not given), the activity change, negative = inhibition in test [1] is 3.69%; in test [2] it was 0%; in test [3], 5.11%; in test [4], 2.86%; in test [5], 1.18%.

`O=C(CSc1nnc2n(Cc3ccccc3)c(=O)c3ccccc3n12)NCc1ccccc1`: the activity change, negative = inhibition in test [1] was 1.33%; in test [2] it was 0%; in test [3], 5.18%; in test [4] it was -2.87%; in test [5], -1.11%.

For the compound `CC(C)Cn1c(CN(C)CCC2CCCCO2)cnc1S(=O)(=O)Cc1ccccc1` (stereo not given), the activity change, negative = inhibition was -4.48% in test [1]; 1.46% in test [2]; -2.39% in test [3]; -5.13% in test [4]; -7.55% in test [5].

With `O=C(O)c1cccc(-c2noc(-c3ccccc3F)n2)c1`, the activity change, negative = inhibition is -19.7% in test [1]; -22.3% in test [2]; -8.39% in test [3]; -26.1% in test [4]; -12.5% in test [5].

Regarding `Nc1ccc(S(=O)(=O)Nc2nccs2)cc1`, the activity change, negative = inhibition in test [1] was 2.25%; in test [2], 5.65%; in test [3], 4.23%; in test [4], -9.71%; in test [5] it was 0.592%.

As for `O=C(NCCc1ccco1)c1cc2n(n1)CCCN(Cc1ccc(Cl)cc1)C2=O`, the activity change, negative = inhibition in test [1] was -8.97%; in test [2], 0%; in test [3], 0.677%; in test [4], -3.38%; in test [5] it was -0.932%.

With `CNCC(O)c1ccc(O)c(O)c1` (stereo not given), the activity change, negative = inhibition is -9.05% in test [1]; 5.2% in test [2]; 1.87% in test [3]; -7.92% in test [4]; -26.3% in test [5].

`CN1CCC(c2cn(C)c3ccc(OS(=O)(=O)c4c(F)cccc4F)cc23)CC1`: the activity change, negative = inhibition in test [1] is -3.28%; in test [2], 5.08%; in test [3], -6.77%; in test [4], -19.3%; in test [5], 3.04%.

`CCS(=O)(=O)N1CCC(c2noc(COc3ccc(F)cc3)n2)C1` (stereo not given): the activity change, negative = inhibition in test [1] is -3.73%; in test [2], -5.03%; in test [3], -0.124%; in test [4], -8.2%; in test [5] it was -5.88%.

Turning to `c1cc(CN2CCCCC2)cc(OCCCNc2nc3ccccc3s2)c1`, the activity change, negative = inhibition in test [1] was -3.17%; in test [2] it was 7.44%; in test [3], -53.3%; in test [4] it was -14.7%; in test [5], 4.16%.

As for `CC(=O)O[C@H]1C[C@@](O)(C(C)C)C2[C@@H](OC(=O)c3ccc(O)cc3)C[C@@]3(C)O[C@H]3C[C@]21C` (stereo not given in full), the activity change, negative = inhibition was -1.08% in test [1]; 2.23% in test [2]; 0.681% in test [3]; -12.2% in test [4]; -7.74% in test [5].

Consider `CCn1c2ccccc2c2cc(CNC)ccc21`, for which the activity change, negative = inhibition in test [1] was 5.27% and 11.5%; in test [2], -2.83% and 8.47%; in test [3], -39.7% and -23.5%; in test [4], -17.6% and -6.75%; in test [5] it was -15.3% and 1.01%.

For `COc1ccc(F)cc1-c1ccc(CN2CCC(N[S+](=O)([O-])c3cccs3)C2)cc1` (stereo not given), the activity change, negative = inhibition in test [1] was -2.38%; in test [2] it was -6.12%; in test [3], -18.6%; in test [4], -6.46%; in test [5], -13.9%.

Turning to `CCC(O)CNC(=O)c1cn2cc(-c3ccc(F)cc3)n(CC=C(C)C)c(=O)c2n1` (stereo not given), the activity change, negative = inhibition in test [1] was -14.3%; in test [2], -2.51%; in test [3], -2.13%; in test [4], -11.5%; in test [5], 4.13%.

For the compound `CCCn1c(=O)c2ccc(C(=O)NCC(C)C)cc2n2c(SCC(=O)c3ccc(F)cc3)nnc12`, the activity change, negative = inhibition in test [1] is 7.43%; in test [2] it was 0.134%; in test [3] it was 5.58%; in test [4] it was 8.29%; in test [5], 8.53%.

Consider `COc1ccc(CNC(=O)C2(C)Cn3cnc(C(=O)Nc4ccc(C)cc4)c3C(=O)N2C2CC2)cc1` (stereo not given), for which the activity change, negative = inhibition was 1.22% in test [1]; 0% in test [2]; 12.4% in test [3]; 2.73% in test [4]; 4.81% in test [5].

Turning to `O=C(CSc1nnc2n(CCc3ccccc3)c(=O)c3ccccc3n12)Nc1ccc(F)cc1`, the activity change, negative = inhibition was 1.4% in test [1]; 0% in test [2]; 5.56% in test [3]; -4.53% in test [4]; 2.39% in test [5].

On to `O[C@@H]1C[C@@H](c2nc(Cc3ccc(F)cc3Cl)no2)N(Cc2ccco2)C1`, for which the activity change, negative = inhibition in test [1] is -7.25%; in test [2], 0.286%; in test [3] it was -1.46%; in test [4], 5.19%; in test [5] it was 1.74%.
